# From ChEMBL document CHEMBL4888484, “Replenishing the malaria drug discovery pipeline: Screening and hit evaluation of the MMV Hit Generation Library 1 (HGL1) against asexual blood stage Plasmodium falciparum ,using a nano luciferase reporter read-out” (2022)
# Screen size: about 150,000 compounds; about 540 (0.36%) showed an effect of 50% or more. Some of the results follow.
# System: Plasmodium falciparum
# Experiment: Primary screen in NF54 nanoGlo assay, in single point, at 2uM, 72h; a lower Z score goes with more inhibition
# Format: functional, Erythrocyte
# Settings: timepoint 72 hour
Structure (SMILES),% Inhibition,Z score
FC1(F)CCCN(Cc2cc3cccnc3o2)C1,-22%,4.06
Cc1ccc(C(=O)O)cc1-n1c(=O)c2cc3[o+]c4ccccc4c4ccccc4[o+]c3cc2c1=O,-11%,1.4
Cc1nc(CNC2CCCCC2OCc2ccccc2)no1 (stereo unspecified),-7%,0.98
CCNc1ncc(C(=O)N(C)Cc2nccn2CC(F)(F)F)s1,-13%,1.92
Cc1cnn(C[C@H]2CCCN2c2nnc(C)c(C)c2C#N)c1,-3%,0.57
CN(C)c1nccc(N(C)CCc2ccc(F)cc2)n1,-12%,1.23
O=C1[C@H]2C(Cc3c[nH]c4ccccc34)N[C@@]3(C(=O)Nc4ccccc43)[C@H]2C(=O)N1CC1CCCO1 (stereo partly specified),-7%,0.9
O=C(c1ccnc(-c2ccc(OCc3ccccc3)c(Cl)c2)c1)N1CCCC1,-11%,1.65
Cn1nc(O)c2c1CN(C(=O)Nc1ccc3c(c1)OCCCO3)CC2,-8%,1.2
CN(c1nc(CN2CCCCC[C@@H]2CCO)cs1)C1CC1,-9%,1.25
COc1cc2c(cc1-c1cn(CCN3CCCOC3=O)nn1)OCCCO2,-2%,0.25
COc1ccc(-c2cc3c(N4CCN(Cc5ccc6c(c5)OCO6)CC4)nccn3n2)cc1OC,37%,-4.74
CN(C)C(=O)NCc1cc2n(n1)CCCN(Cc1ccc3c(c1)OCO3)C2,9%,-1.3
CCN(Cc1ccc(OC)nc1)C(C)(C)CO,-2%,0.22
O=C(NC1CCN(Cc2ccccc2)CC1)c1cn(CCc2ccccc2)nn1,4%,-0.58
CCc1cc(C(=O)N2CCC([C@@H]3OCCC3C(=O)O)CC2)oc1CC (stereo partly specified),9%,-0.88
CC(C)O[C@H]1CN(C(=O)CCNC(=O)c2ccc(F)cc2)C[C@@H]1O,6%,-0.9
CCOc1ccccc1N(CC(=O)Nc1cccc(N(C)S(C)(=O)=O)c1)S(=O)(=O)c1ccc(Cl)cc1,-11%,1.5
O=C(Nc1scnc1C1CC1)N1CCCn2c(cc3ccccc32)C1,10%,-1.46
CC(NC(=O)[C@H]1CCC(=O)N1)C1CC2CCC1C2 (stereo partly specified),-1%,0.1
Cc1c[nH]c(C(=O)N2CCN(Cc3ccncc3)[C@@H]3CS(=O)(=O)C[C@@H]32)c1,-7%,1.47

Structure (SMILES),% Inhibition,Z score
CCCN(C(=O)NCc1ccc(O)cc1)[C@H]1CCCC[C@@H]1O,-10%,1.25
COc1ccc(-c2cc(C(=O)NCCc3ccccc3)sn2)cc1,-10%,1.26
COc1ccc(CCC(=O)N2Cc3cncnc3C2)cc1,-12%,2.08
CCCCn1cc(C(=O)N2CCc3ccncc32)c(C)n1,-13%,2.45
CN1CC[C@@H]2CN(C3CCN(c4nc5ccccc5o4)CC3)C[C@@H]21,-5%,0.59
CC(C)(C)OC(=O)[C@@]12CCC[C@H]1CN(C(=O)c1cscn1)C2,-4%,0.45
CC(C)CN(CC(=O)NC(C)C)c1cccc(O)c1,-3%,0.6
O=C(N[C@H]1CC12CCCCC2)c1cc(F)cc2[nH]nnc12,-9%,0.74
CCCOc1ncccc1CNC(=O)CN1Cc2ccccc2C1,-14%,1.37
O=C(N1CCN(CCCO)CC1)N1CCN(Cc2ccccc2)CC1,-11%,2.01
CCOC(=O)N1CCN(C(=O)CCc2nnc(CCc3ccccc3OC)o2)CC1,-3%,0.5
C[C@H]1CCCN(Cc2c(-c3ccccc3)nc3ccc(Cl)cc3c2O)C1,-11%,1.44
CCc1oc(C(=O)Nc2cnccn2)cc1C,-6%,1.01
Cc1nn(C)c(C)c1S(=O)(=O)N1CC(Oc2cccnc2)C1,-5%,0.88
CNC(=O)[C@H](C)N(C)C(=O)c1cc2c(n(C)c1=O)CCCC2,-10%,1.69
Cc1noc(C)c1CC(=O)N[C@H]1CC(=O)N(c2ccccc2)C1,-14%,2.12
COc1ccc(OC)c2c1cc1n2C[C@@](C)(C(=O)NC2CCCCCC2)N(Cc2ccccn2)C1=O,-2%,0.32
O=C(Nc1nc2c(s1)CN(Cc1ccccc1)CC2)c1ccc(S(=O)(=O)N2CCCC2)cc1,13%,-1.7
C=C(C)CN1CCN(CC[C@H]2CCOC2)CC1,-10%,1.87
NC(=O)NCCC(=O)N1CCc2onc(-c3cccc4ccccc34)c2C1,-2%,0.36
CCOCCNc1ccc(S(N)(=O)=O)cc1C(F)(F)F,0%,-0.09

Structure (SMILES),% Inhibition,Z score
COc1ccccc1CCC(=O)N1C[C@@H]2C[C@H]1C(=O)N2c1cc(Cl)ccc1OC,4%,-0.62
Cc1cc(CN(C)C(=O)c2[nH]nc(C)c2Cl)on1,2%,-0.23
COC(=O)NC12C3C4C1C1C2C3C1(Br)C41OCCO1 (stereo unspecified),-22%,2.6
CC(C)(C)c1cc(-c2nccn2[C@H]2COC[C@@H]2N2CCCCC2)n[nH]1,-5%,0.94
Cc1nnsc1C(=O)NCCn1ccc(C(F)(F)F)n1,-20%,2.56
O=C(NC[C@H](O)c1cccnc1)c1cn(Cc2ccc(F)cc2)nn1,-5%,0.65
C=CCNC(=O)CN1CC[C@@](O)(c2ccccc2)[C@H]2CCCC[C@H]21,-12%,2.12
c1ccc(-c2cnc(NC3CCOC(c4cccnc4)C3)cn2)cc1 (stereo unspecified),-10%,1.84
O=C(NC[C@H](O)c1ccoc1)c1ccc(Br)o1,-10%,1.57
Cc1occc1CNS(=O)(=O)CCCS(=O)(=O)C(F)(F)F,-5%,0.98
CCOC(=O)N1CCN(c2ccc(NC(=O)C3CCCC3)c(C(=O)O)c2)CC1,12%,-1.9
Cc1ccc(N2C[C@@H](C(=O)Nc3cc(NC(=O)Cn4cccnc4=O)ccc3F)CC2=O)cc1F,5%,-0.65
CCC(F)(F)CN1CCc2occc2[C@@H]1C(=O)O,-6%,0.88
O=C(CCCn1cncn1)Nc1c(O)c(Cl)cc(Cl)c1Cl,-2%,0.2
COc1ccc2c(c1)CCCN([C@H]1CCN(CC(F)(F)F)C1=O)C2,-8%,1.65
CC(CCCC(C)(C)O)NC(C)CCc1ccccc1 (stereo unspecified),-10%,1.31
Cc1noc(-c2cccc(C(F)(F)F)c2)c1C(=O)NCc1cccc(F)c1F,-16%,1.78
CC(C)c1noc(C(C)N2Cc3ccccc3C(c3ccccc3)C2)n1 (stereo unspecified),2%,-0.27
COc1ccc(NC(=O)C2CCC(CNS(=O)(=O)c3ccc4c(c3)C(C)(C)C(=O)N4C)CC2)cc1 (stereo unspecified),-9%,0.87
Cc1nnc(N2CCC[C@H](CN3CCOCC3)C2)s1,2%,-0.25
O=C1N[C@H]2C[C@@H](C(=O)NC[C@H]3O[C@H](CCOc4ccccc41)CC[C@@H]3O)N(Cc1ccc3c(c1)OCO3)C2,26%,-2.92

Structure (SMILES),% Inhibition,Z score
CC(=O)N(CC(=O)Nc1ccc(N2CCN(C(=O)Nc3cccc(C(F)(F)F)c3)CC2)cc1)Cc1ccccc1,-16%,2.28
COCCn1c(CO)nnc1[C@H]1C[C@@H](NC(=O)c2cccc(O)c2C)C1,-9%,1.61
CC1CN(c2cc(N(C)C)ncn2)CC(C)O1 (stereo unspecified),-12%,1.6
Cn1c(=O)[nH]c2ncc(-c3cccc(C(=O)NC[C@H]4Cc5ccccc5O4)c3)cc21,-3%,0.29
COc1nn(C)cc1C(=O)Nc1ccon1,-4%,0.49
CC(CC(=O)c1ccc(F)cc1)NC(=O)C1C2C3CCC(C3)C12 (stereo unspecified),-5%,0.56
Cn1cnc2c(C(=O)N3CCCCC3)nn(-c3ccccc3)c2c1=O,-21%,1.96
CCc1nn(-c2cccc(C)c2)c(N2CCN(C)CC2)c1CN(Cc1ccc(C)cc1)C(C)C,-6%,0.9
Cc1ccc(CNC(=O)C[C@H]2CCCCN(C)C2=O)cc1,-13%,2.53
CN(Cc1ccsc1)C(=O)[C@@H]1CCCO1,-12%,1.74
Cc1noc(C)c1CS(=O)(=O)C[C@H](O)c1ccc(F)cc1,-5%,0.73
O=C(c1cccc(-n2cccn2)n1)N1CCC(Cc2ccccc2)CC1,1%,-0.24
CN(C)c1noc(CN(Cc2ccc(F)cc2F)C2CC2)n1,6%,-0.66
Cc1cc(C(=O)N2CCC([C@H]3[C@@H](Oc4ccccc4)CN3C(C)C)CC2)nn1C,-11%,1.32
COCCn1cnc2cc(NC(=O)C3CCCCC3)cc(C(=O)N(C)[C@@H](C)c3nc(C)cs3)c21,-13%,1.67
O=C(NCc1ccccc1)NC[C@H]1Cn2ccnc2CO1,29%,-3.24
CCN(CC)C(=O)[C@@H]1C[C@@H](n2cc(C3CCCCC3)nn2)CN1,-23%,2.44
COCc1nc(N(C)CCn2cccn2)c2c(-c3ccccc3)csc2n1,-1%,0.15
CCCc1nc(NC(=O)N[C@@H](C)Cn2cncn2)sc1CC,4%,-0.54
O=C(c1ccncc1)N1N=CC[C@]1(O)C(F)(F)F,-2%,0.43
